# The supplement of paper PMC8728848
# The list shows a part of the results.
# Experiments:
# Assay in all cases: glycan array binding signal (z-score within array); higher = stronger binding
# Details in all cases: glycan notation: IUPAC condensed, linker removed
# [1] = target: Fuc(a1-2)Gal(b1-4)GlcNAc(b1-3)Gal(b1-4)GlcNAc(b1-3)Gal(b1-4)GlcNAc
# Summary of the method: (§1)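 Negative Z-scores can be read as non-binding. The Z-score is calculated within each array and then averaged across arrays of one protein sequence at different concentrations or buffers and across linkers. Arrays, 3228 in all, were curated from the Consortium for Functional Glycomics database and kept only where the protein sequence was available.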
# [2] = target: Fuc(a1-2)Gal(b1-4)GlcNAc(b1-3)GalNAc
# Summary of the method: as §1
# [3] = target: Fuc(a1-2)Gal(b1-4)GlcNAc(b1-3)[Fuc(a1-2)Gal(b1-4)GlcNAc(b1-6)]GalNAc
# Summary of the method: as §1
# [4] = target: Fuc(a1-2)Gal(b1-4)GlcNAc(b1-3)[Fuc(a1-3)[Gal(b1-4)]GlcNAc(b1-6)]Gal(b1-4)Glc
# Summary of the method: as §1
# [5] = target: Fuc(a1-2)Gal(b1-4)GlcNAc(b1-6)GalNAc
# Summary of the method: as §1
# [6] = target: Fuc(a1-2)Gal(b1-4)GlcNAc6S
# Summary of the method: as §1
# [7] = target: Fuc(a1-2)Gal(b1-4)[Fuc(a1-3)]GlcNAc
# Summary of the method: as §1
# [8] = target: Fuc(a1-2)Gal(b1-4)[Fuc(a1-3)]GlcNAc(b1-2)Man(a1-3)[Fuc(a1-2)Gal(b1-4)[Fuc(a1-3)]GlcNAc(b1-2)Man(a1-6)]Man(b1-4)GlcNAc(b1-4)[Fuc(a1-6)]GlcNAc
# Summary of the method: as §1
# [9] = target: Fuc(a1-2)Gal(b1-4)[Fuc(a1-3)]GlcNAc(b1-2)[Fuc(a1-2)Gal(b1-4)[Fuc(a1-3)]GlcNAc(b1-4)]Man(a1-3)[Fuc(a1-2)Gal(b1-4)[Fuc(a1-3)]GlcNAc(b1-2)Man(a1-6)]Man(b1-4)GlcNAc(b1-4)GlcNAc
# Summary of the method: as §1
# [10] = target: Fuc(a1-2)Gal(b1-4)[Fuc(a1-3)]GlcNAc(b1-3)Gal(b1-4)[Fuc(a1-3)]GlcNAc
# Summary of the method: as §1
# [11] = target: Fuc(a1-2)Gal(b1-4)[Fuc(a1-3)]GlcNAc(b1-3)Gal(b1-4)[Fuc(a1-3)]GlcNAc(b1-3)Gal(b1-4)[Fuc(a1-3)]GlcNAc
# Summary of the method: as §1
# [12] = target: Fuc(a1-2)Gal(b1-4)[Fuc(a1-3)]GlcNAc(b1-3)GalNAc
# Summary of the method: as §1
# [13] = target: Fuc(a1-2)Gal(b1-4)[Fuc(a1-3)]GlcNAc(b1-3)[Neu5Ac(a2-6)Gal(b1-4)GlcNAc(b1-6)]Gal(b1-4)Glc
# Summary of the method: as §1
# [14] = target: Fuc(a1-2)Gal3S(b1-4)GlcNAc
# Summary of the method: as §1
# [15] = target: Fuc(a1-2)Gal6S(b1-3)GlcNAc
# Summary of the method: as §1
# [16] = target: Fuc(a1-2)Gal6S(b1-3)GlcNAc6S
# Summary of the method: as §1
# [17] = target: Fuc(a1-2)Gal6S(b1-4)Glc
# Summary of the method: as §1
# [18] = target: Fuc(a1-2)Gal6S(b1-4)Glc6S
# Summary of the method: as §1
# [19] = target: Fuc(a1-2)[Gal(a1-3)]Gal
# Summary of the method: as §1
# [20] = target: Fuc(a1-2)[Gal(a1-3)]Gal(b1-3)GalNAc
# Summary of the method: as §1
# [21] = target: Fuc(a1-2)[Gal(a1-3)]Gal(b1-3)GalNAc(b1-3)Gal(a1-4)Gal(b1-4)Glc
# Summary of the method: as §1
# [22] = target: Fuc(a1-2)[Gal(a1-3)]Gal(b1-3)GlcNAc
# Summary of the method: as §1
# [23] = target: Fuc(a1-2)[Gal(a1-3)]Gal(b1-3)GlcNAc(b1-2)Man(a1-3)[Fuc(a1-2)[Gal(a1-3)]Gal(b1-3)GlcNAc(b1-2)Man(a1-6)]Man(b1-4)GlcNAc(b1-4)GlcNAc
# Summary of the method: as §1
# [24] = target: Fuc(a1-2)[Gal(a1-3)]Gal(b1-3)GlcNAc(b1-2)Man(a1-3)[Fuc(a1-2)[Gal(a1-3)]Gal(b1-3)GlcNAc(b1-2)Man(a1-6)]Man(b1-4)GlcNAc(b1-4)[Fuc(a1-6)]GlcNAc
# Summary of the method: as §1
# [25] = target: Fuc(a1-2)[Gal(a1-3)]Gal(b1-3)GlcNAc(b1-3)GalNAc
# Summary of the method: as §1
# [26] = target: Fuc(a1-2)[Gal(a1-3)]Gal(b1-3)GlcNAc(b1-6)GalNAc
# Summary of the method: as §1
# [27] = target: Fuc(a1-2)[Gal(a1-3)]Gal(b1-4)Glc
# Summary of the method: as §1
# [28] = target: Fuc(a1-2)[Gal(a1-3)]Gal(b1-4)GlcNAc
# Summary of the method: as §1
# [29] = target: Fuc(a1-2)[Gal(a1-3)]Gal(b1-4)GlcNAc(b1-2)Man
# Summary of the method: as §1
# [30] = target: Fuc(a1-2)[Gal(a1-3)]Gal(b1-4)GlcNAc(b1-2)Man(a1-3)[Fuc(a1-2)[Gal(a1-3)]Gal(b1-4)GlcNAc(b1-2)Man(a1-6)]Man(b1-4)GlcNAc(b1-4)GlcNAc
# Summary of the method: as §1
# [31] = target: Fuc(a1-2)[Gal(a1-3)]Gal(b1-4)GlcNAc(b1-2)Man(a1-3)[Fuc(a1-2)[Gal(a1-3)]Gal(b1-4)GlcNAc(b1-2)Man(a1-6)]Man(b1-4)GlcNAc(b1-4)[Fuc(a1-6)]GlcNAc
# Summary of the method: as §1
# [32] = target: Fuc(a1-2)[Gal(a1-3)]Gal(b1-4)GlcNAc(b1-3)GalNAc
# Summary of the method: as §1
# [33] = target: Fuc(a1-2)[Gal(a1-3)]Gal(b1-4)GlcNAc(b1-6)GalNAc
# Summary of the method: as §1
# [34] = target: Fuc(a1-2)[Gal(a1-3)]Gal(b1-4)[Fuc(a1-3)]Glc
# Summary of the method: as §1
# [35] = target: Fuc(a1-2)[Gal(a1-3)]Gal(b1-4)[Fuc(a1-3)]GlcNAc
# Summary of the method: as §1
# [36] = target: Fuc(a1-2)[Gal(a1-3)]Gal(b1-4)[Fuc(a1-3)]GlcNAc(b1-3)GalNAc
# Summary of the method: as §1
# [37] = target: Fuc(a1-2)[Gal(a1-4)]Gal(b1-4)GlcNAc
# Summary of the method: as §1
binder,measurement,setting,value
Pbx1 (Cryptococcus neoformans) (protein) ATTKCLVSGDQDSINNALALGGEGTTVTLCPGSVHRLNSSIIFTAPSQTLTTLGNPKDRNRAMLVVDGEDLACAIRADCKQCSHAMIRSLVIDGNRPQLLRIPKGDALIEVGNAESQTVRDCKLYEPRGWSALHFREGDERQCRFGHIVDNEIGPCGEEWDDEYDSMDETKPLWGNPRADGISLACKDSIVERNVVYDATDGAIVLFGSAGSTVKNNHVYARTRVILGGINLVDYEPWDGDYTNVKVHHNHLYALGRYFKVGIVIGPASWSDDTESVVHSASVTDNEFSGGYWGYGIVVASAKNFEVLRNKVIWDGEQGVARFSGVPGSRCPKAPENGKPTAFLINRGSAKGIFQDDFVNGEVQHIICLNPDQDPPYKPWRFRDSPEAIAAKQAENPTANSAFDSRIAEALVSYQMSLLNSMDAMTQKVEHLTNPIVDDALPFVHEHERAEADKKARQEASRKEKESGNKDVDMLNVKVEELEKSGRRLKKALDGLKSDFEGLSGRLKKSADENKPIIETIFVTSQNLLLGATSQQN,glycan array binding signal (z-score),[1],-0.224
same,glycan array binding signal (z-score),[2],0.197
same,glycan array binding signal (z-score),[3],0.42
same,glycan array binding signal (z-score),[4],0.18
same,glycan array binding signal (z-score),[5],0.406
same,glycan array binding signal (z-score),[6],-0.356
same,glycan array binding signal (z-score),[7],-0.326
same,glycan array binding signal (z-score),[8],0.778
same,glycan array binding signal (z-score),[9],0.738
same,glycan array binding signal (z-score),[10],0.13
same,glycan array binding signal (z-score),[11],-0.478
same,glycan array binding signal (z-score),[12],1.16
same,glycan array binding signal (z-score),[13],1.13
same,glycan array binding signal (z-score),[14],0.345
same,glycan array binding signal (z-score),[15],0.434
same,glycan array binding signal (z-score),[16],1.88
same,glycan array binding signal (z-score),[17],-0.057
same,glycan array binding signal (z-score),[18],-0.449
same,glycan array binding signal (z-score),[19],-0.844
same,glycan array binding signal (z-score),[20],-0.092
same,glycan array binding signal (z-score),[21],-0.412
same,glycan array binding signal (z-score),[22],0.272
same,glycan array binding signal (z-score),[23],0.05
same,glycan array binding signal (z-score),[24],0.282
same,glycan array binding signal (z-score),[25],-0.437
same,glycan array binding signal (z-score),[26],-0.296
same,glycan array binding signal (z-score),[27],0.291
same,glycan array binding signal (z-score),[28],-0.654
same,glycan array binding signal (z-score),[29],-0.203
same,glycan array binding signal (z-score),[30],1.13
same,glycan array binding signal (z-score),[31],1.09
same,glycan array binding signal (z-score),[32],0.041
same,glycan array binding signal (z-score),[33],0.284
same,glycan array binding signal (z-score),[34],-0.081
same,glycan array binding signal (z-score),[35],-0.231
same,glycan array binding signal (z-score),[36],0.55
same,glycan array binding signal (z-score),[37],0.002
